Measurements from the supplement of paper PMC9446081.
The whole screen tested about 39,000 compounds, of which about 220 (0.56%) showed activity. The list shows a part of the results.

Each compound was assayed on Escherichia coli K-12 BW25113 (assay: relative growth (OD600 normalised to plate interquartile mean) (fraction); higher = less growth inhibition, active = 0.2 or less). Conditions: 50 µM; LB; incubation time: overnight (16-24 h).
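Also: static incubation at 37 °C against the wild-type strain, values averaged over two biological replicates.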

Compound | relative growth
C[C@H]1CN([C@@H](C)CO)C(=O)c2cc(NC(=O)Nc3cccc4ccccc34)ccc2O[C@@H]1CN(C)Cc1ccc(-c2ccccc2)cc1 | inactive: 0.993
O=C(O)c1ccc(/C2=C3\C=CC(=N3)/C(c3ccc(C(=O)O)cc3)=c3/cc/c4[n]3[Mn+][n]3c2ccc3/C(c2ccc(C(=O)O)cc2)=C2/C=CC(=N2)\C=4c2ccc(C(=O)O)cc2)cc1 | inactive: 0.999
COCC(=O)N(C)C[C@@H]1Oc2cc(C#Cc3ccccc3)ccc2S(=O)(=O)N([C@H](C)CO)C[C@H]1C | inactive: 1.01
COc1ccc(S(=O)(=O)N(C)C[C@@H]2Oc3ccc(NC(=O)Nc4cccc5ccccc45)cc3C(=O)N([C@@H](C)CO)C[C@@H]2C)cc1 | inactive: 1
COc1ccc(S(=O)(=O)Nc2ccc3c(c2)CC(=O)N([C@H](C)CO)C[C@@H](C)[C@@H](CN(C)Cc2ccc(Oc4ccccc4)cc2)O3)cc1 | inactive: 0.981
CC(C)[C@@H](CO)N1C(=O)[C@@H]2[C@H]3C(=O)OCCC/C=C\[C@H]3O[C@]23C=CCN(Cn2nnc4ccccc42)C(=O)[C@@H]13 | inactive: 0.987
CC(C)NC(=O)Nc1ccc2c(c1)CC(=O)N([C@H](C)CO)C[C@H](C)[C@H](CN(C)S(=O)(=O)c1cccs1)O2 | inactive: 1.01
C[C@@H]1CN([C@@H](C)CO)C(=O)c2c(c3ccccc3n2C)-c2ccccc2CO[C@H]1CN(C)C(=O)Nc1cccc(F)c1 | inactive: 1.03
C[C@H](CO)N1C[C@H](C)[C@H](CN(C)C(=O)Nc2ccccc2)OCCCC[C@H](C)Oc2ccc(NC(=O)Cc3ccccc3)cc2C1=O | inactive: 1.01
COc1ccc(CN(C)C[C@@H]2OCCCC[C@@H](C)Oc3ccc(NC(=O)C4CCCCC4)cc3C(=O)N([C@H](C)CO)C[C@@H]2C)cc1 | inactive: 1.01
CN(C)CCCN1c2ccccc2Sc2ccc(Cl)cc21.Cl | inactive: 0.769
C[C@@H]1CCCCO[C@@H](CN(C)Cc2ccc(C(=O)Nc3ccccc3N)cc2)[C@@H](C)CN([C@H](C)CO)C(=O)c2cc(NC(=O)Nc3ccc4c(c3)OCO4)ccc2O1 | inactive: 1.02
COc1ccc(NC(=O)Nc2ccc3c(c2)C(=O)N([C@@H](C)CO)C[C@@H](C)[C@H](CN(C)Cc2ccc(C(=O)O)cc2)OCCCC[C@H](C)O3)cc1 | inactive: 1.01
C[C@H](NC(=O)C[C@H]1C=C[C@@H](NC(=O)CN2CCOCC2)[C@H](CO)O1)c1ccccc1 | inactive: 1
Cc1ccccc1S(=O)(=O)N1C[C@H](O)COC[C@@H]2O[C@@H](CC(=O)N3CCOCC3)CC[C@H]21 | inactive: 1.02
